This passage reports binding signal results from PMC5700166.

Assay in all cases: protein-binding microarray (PBM)
Conditions in all cases: PBM: ~300 nM protein, 6 mM HEPES pH 7.8, 80 mM KCl, 0.5 mM EDTA, 0.5 mM EGTA, 6% glycerol, 35 ng/ul poly-dIdC, 1% milk, 1 h, room temperature; Ap Aiptasia and Nv Nematostella (sea anemones) / Co Capsaspora / Aq Amphimedon (sponge) / Dm Drosophila / Hu human; RHD is the Rel homology domain; high values mean tight binding; most listed sequences are background and not binding sites; double strand, one strand shown

The target of assay [1] is T1, GST-Ap-NF-kB RHD (UniProt A0A913YAJ5).
T1 sequence: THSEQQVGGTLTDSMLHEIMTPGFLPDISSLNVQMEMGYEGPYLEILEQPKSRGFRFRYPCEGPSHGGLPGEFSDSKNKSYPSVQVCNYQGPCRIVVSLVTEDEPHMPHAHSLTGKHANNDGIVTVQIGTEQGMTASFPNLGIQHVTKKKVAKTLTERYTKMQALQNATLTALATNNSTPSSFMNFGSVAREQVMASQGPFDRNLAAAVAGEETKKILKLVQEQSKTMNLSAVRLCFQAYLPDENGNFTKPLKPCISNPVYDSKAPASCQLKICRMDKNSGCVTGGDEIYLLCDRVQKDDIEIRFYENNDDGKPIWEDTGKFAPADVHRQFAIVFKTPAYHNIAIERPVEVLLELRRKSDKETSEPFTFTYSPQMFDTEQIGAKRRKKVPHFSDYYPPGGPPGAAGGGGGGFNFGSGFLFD

Assay [2] has as its target T2, GST-Nv-NF-kB (Cys allele) (UniProt E5G601).
T2 sequence: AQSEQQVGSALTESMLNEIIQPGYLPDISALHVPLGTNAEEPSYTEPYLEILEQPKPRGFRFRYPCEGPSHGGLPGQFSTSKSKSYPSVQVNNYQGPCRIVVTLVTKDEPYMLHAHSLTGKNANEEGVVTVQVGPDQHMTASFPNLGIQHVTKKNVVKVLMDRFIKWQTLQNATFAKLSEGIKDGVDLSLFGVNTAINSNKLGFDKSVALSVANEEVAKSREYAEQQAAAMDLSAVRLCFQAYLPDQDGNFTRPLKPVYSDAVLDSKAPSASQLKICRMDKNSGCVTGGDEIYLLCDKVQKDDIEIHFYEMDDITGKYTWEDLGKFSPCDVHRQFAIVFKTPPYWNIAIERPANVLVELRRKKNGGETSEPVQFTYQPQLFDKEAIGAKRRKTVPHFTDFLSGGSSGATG

Assay [3] concerns the target T3, GST-Co-NF-kB (UniProt F1ARL5).
T3 sequence: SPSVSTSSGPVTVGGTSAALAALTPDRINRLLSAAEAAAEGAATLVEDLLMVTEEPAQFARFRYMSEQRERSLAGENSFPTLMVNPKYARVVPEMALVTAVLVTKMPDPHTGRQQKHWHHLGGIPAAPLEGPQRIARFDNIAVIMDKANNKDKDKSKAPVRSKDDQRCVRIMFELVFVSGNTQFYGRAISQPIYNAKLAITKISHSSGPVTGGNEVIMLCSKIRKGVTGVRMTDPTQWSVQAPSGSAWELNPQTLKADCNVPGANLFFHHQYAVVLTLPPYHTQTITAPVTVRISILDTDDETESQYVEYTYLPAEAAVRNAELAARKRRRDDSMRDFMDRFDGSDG

For assay [4], the target named is T4, GST-Dm-Relish (UniProt Q94527).
T4 sequence: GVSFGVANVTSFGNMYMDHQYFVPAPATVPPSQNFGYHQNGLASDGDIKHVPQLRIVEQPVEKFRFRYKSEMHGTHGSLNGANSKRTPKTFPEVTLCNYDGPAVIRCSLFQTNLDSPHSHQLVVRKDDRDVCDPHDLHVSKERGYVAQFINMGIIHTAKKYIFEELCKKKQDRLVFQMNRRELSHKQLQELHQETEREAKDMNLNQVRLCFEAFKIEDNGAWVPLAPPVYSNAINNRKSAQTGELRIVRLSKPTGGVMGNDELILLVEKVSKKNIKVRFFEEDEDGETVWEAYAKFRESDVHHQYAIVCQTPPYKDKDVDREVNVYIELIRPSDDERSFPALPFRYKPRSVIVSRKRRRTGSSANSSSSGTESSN

Assay [5] deals with T5, GST-Aq-NF-kB (UniProt A9Y5G7).
T5 sequence: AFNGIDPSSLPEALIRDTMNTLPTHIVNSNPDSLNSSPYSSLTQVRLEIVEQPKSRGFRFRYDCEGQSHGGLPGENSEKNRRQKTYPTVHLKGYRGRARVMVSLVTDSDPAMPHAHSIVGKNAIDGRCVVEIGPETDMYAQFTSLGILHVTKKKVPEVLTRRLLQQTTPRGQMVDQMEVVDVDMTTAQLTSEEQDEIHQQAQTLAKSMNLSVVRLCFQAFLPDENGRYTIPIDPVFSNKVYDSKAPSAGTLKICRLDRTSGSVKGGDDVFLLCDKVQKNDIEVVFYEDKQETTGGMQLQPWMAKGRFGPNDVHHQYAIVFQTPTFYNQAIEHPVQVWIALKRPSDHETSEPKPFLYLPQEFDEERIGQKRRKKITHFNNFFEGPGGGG

This is a selection; strong and weak results do not stand in their true shares. The list includes weakly bound sequences.

As to “CCGATTAACATCACGTGAGCGGCTGATGTTAATCGGGTCTTGATTCGCTTGACGCTGCTG”, the binding signal was 0.0515 z-score in assay [1]; -0.301 z-score in assay [2]; -0.293 z-score in assay [3]; -0.235 z-score in assay [4]; -0.415 z-score in assay [5].
For “CCGATTAACATCACAAGGTCACATGATGTTAATCGGGTCTTGATTCGCTTGACGCTGCTG”, in that order: 0.0276 z-score, 0.0871 z-score, 0.0673 z-score, 0.625 z-score and -0.268 z-score.
The matching figures for “CCGATTAACATCAAAAGGAAATTTGATGTTAATCGGGTCTTGATTCGCTTGACGCTGCTG”: -0.202 z-score, 0.847 z-score, 0.0181 z-score, 0.802 z-score and 0.597 z-score.
With “CCGATTAACATCAATATTCTCTCTGATGTTAATCGGGTCTTGATTCGCTTGACGCTGCTG”, the binding signal in assay [1] is -0.122 z-score; in assay [2], 0.037 z-score; in assay [3], -0.351 z-score; in assay [4], 0.00359 z-score; in assay [5], -0.38 z-score.
The matching figures for “CCGATTAACATCACTTGTTGCGTTGATGTTAATCGGGTCTTGATTCGCTTGACGCTGCTG”: 0.532 z-score, -0.0963 z-score, 0.942 z-score, 0.014 z-score and -0.228 z-score.
For “CCGATTAACATCAATGCGGTGCGTGATGTTAATCGGGTCTTGATTCGCTTGACGCTGCTG”, in that order: 0.15 z-score, -0.237 z-score, -0.699 z-score, -0.237 z-score and -0.089 z-score.
Regarding “CCGATTAACATCACCCATGTATTTGATGTTAATCGGGTCTTGATTCGCTTGACGCTGCTG”, the binding signal in assay [1] was -0.124 z-score; in assay [2], -0.142 z-score; in assay [3] it was 0.875 z-score; in assay [4] it was 0.955 z-score; in assay [5], -0.002 z-score.
“CCGATTAACATCAGGCCCTCCACTGATGTTAATCGGGTCTTGATTCGCTTGACGCTGCTG”: the binding signal in assay [1] was 0.413 z-score; in assay [2], -0.486 z-score; in assay [3] it was -0.767 z-score; in assay [4] it was 0.0521 z-score; in assay [5], 0.395 z-score.
For “CCGATTAACATCAAGGAAAATACTGATGTTAATCGGGTCTTGATTCGCTTGACGCTGCTG”, in that order: -0.176 z-score, -0.194 z-score, 0.713 z-score, 1.2 z-score and 0.593 z-score.
The matching figures for “CCGATTAACATCATGGTGCTAAGTGATGTTAATCGGGTCTTGATTCGCTTGACGCTGCTG”: 0.0933 z-score, 0.125 z-score, 0.609 z-score, -0.0072 z-score and -0.27 z-score.
For “CCGATTAACATCATGCGCTTTGATGATGTTAATCGGGTCTTGATTCGCTTGACGCTGCTG”, in that order: -0.512 z-score, 0.122 z-score, -0.463 z-score, -0.864 z-score and -0.57 z-score.
Consider “CCGATTAACATCAGTGCTCGGTCTGATGTTAATCGGGTCTTGATTCGCTTGACGCTGCTG”, for which the binding signal is -0.153 z-score in assay [1]; 0.218 z-score in assay [2]; -0.71 z-score in assay [3]; -0.792 z-score in assay [4]; -0.32 z-score in assay [5].
The matching figures for “CCGATTAACATCACCAATTGGTATGATGTTAATCGGGTCTTGATTCGCTTGACGCTGCTG”: -0.267 z-score, -0.463 z-score, -0.75 z-score, -0.419 z-score and -0.305 z-score.
Consider “CCGATTAACATCAAATTTTCCGCTGATGTTAATCGGGTCTTGATTCGCTTGACGCTGCTG”, for which the binding signal in assay [1] was 0.498 z-score; in assay [2], -0.621 z-score; in assay [3], -0.0238 z-score; in assay [4], 0.691 z-score; in assay [5], 0.911 z-score.
